The supplement of paper PMC12217912
Some of the results follow. The full chains were built here from the parent and the listed change. Values near 0.05 are background.

B1: TEV protease; numbered along this chain (parent)
chain: MGESLFKGPRDYNPISSSICHLTNESDGHTTSLYGIGFGPFIITNKHLFRRNNGTLVVQSLHGVFKVKDTTTLQQHLVDGRDMIIIRMPKDFPPFPQKLKFREPQREERICLVTTNFQTKSMSSMVSDTSCTFPSGDGIFWKHWIQTKDGQCGSPLVSTRDGFIVGIHSASNFTNTNNYFTSVPKNFMELLTNQEAQQWVSGWRLNADSVLWGGHKVFMVKPEEPFQPVKEATQL

Variants of: B1
Assay: raw area under fraction-flipped curve 0-4 h after induction (AUC4h, not background-subtracted), DNA-recorder readout of cleavage of the substrate (dimensionless); higher = more cleavage of the substrate by the protease variant
Conditions: temperature: 34 °C; time window: 0-4 h after rhamnose induction
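Further: Bxb1 expression induced with 0.2% (w/v) L-rhamnose at OD600 near 0.5, cultures sampled hourly, flipped fraction per protease–substrate barcode pair counted by paired-end Illumina sequencing.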

Row | Variant | area with substrate ENLYFQF | area with substrate ENLYFQK | area with substrate ENLYFQL | area with substrate ENLYFQN | area with substrate ENLYFQR | area with substrate ENLYFQS | area with substrate ENLYFQT | area with substrate ENLYFQV | area with substrate ENLYFQC | area with substrate ENLYFQH | area with substrate ENLYFQW | area with substrate ENLYFQD | area with substrate ENLYFQE | area with substrate ENLYFQG | area with substrate ENLYFQI | area with substrate ENLYFQP | area with substrate ENLYFQY | area with substrate ENLYFQM | area with substrate ENLYFQQ
1 | S60L | 0.0588 | 0.0613 | 0.0336 | 0.0535 | 0.0762 | 0.0928 | 0.0878 | 0.0536 | – | – | – | – | – | – | – | – | – | – | –
2 | V200N | – | – | 0.0601 | 0.0609 | 0.0665 | 0.0689 | – | 0.0622 | 0.075 | 0.0568 | 0.0699 | – | – | – | – | – | – | – | –
3 | S123M | 0.0779 | – | – | 0.078 | 0.0674 | 0.112 | 0.0714 | – | – | 0.0847 | – | 0.0819 | 0.0495 | 0.0958 | 0.057 | 0.111 | 0.0366 | – | –
4 | A196L | 0.0903 | 0.0593 | 0.0642 | 0.0562 | 0.0605 | 0.116 | 0.0748 | 0.0623 | 0.107 | 0.099 | 0.0621 | 0.0948 | – | 0.0531 | 0.0614 | 0.0493 | 0.0811 | 0.114 | –
5 | L205W | – | – | 0.0281 | 0.063 | 0.0563 | 0.092 | – | 0.0618 | 0.0841 | – | – | – | – | 0.0662 | – | – | 0.0616 | – | –
6 | V67L | – | 0.034 | – | – | 0.0562 | 0.0969 | 0.0619 | 0.0485 | – | – | 0.0719 | 0.0571 | 0.0738 | 0.0834 | 0.0481 | – | 0.0664 | 0.0823 | –
7 | Q197K | – | 0.0542 | 0.0475 | 0.0618 | – | 0.0916 | 0.0565 | 0.0669 | – | 0.0642 | – | – | – | – | – | 0.035 | 0.0603 | 0.0919 | –
8 | F226W | 0.0755 | 0.0722 | 0.0615 | 0.0796 | 0.0612 | 0.102 | 0.0671 | 0.0721 | 0.122 | 0.0745 | 0.0647 | 0.0901 | – | 0.104 | 0.0504 | 0.0502 | 0.0768 | 0.0795 | 0.06
9 | S201W | 0.0742 | 0.076 | 0.066 | – | 0.0583 | 0.0795 | 0.0611 | – | 0.088 | 0.0735 | 0.0498 | – | – | 0.0831 | 0.0587 | 0.0537 | 0.0599 | 0.0725 | 0.0648
10 | F218P | 0.0622 | 0.0542 | 0.0676 | – | 0.0586 | 0.0598 | 0.0615 | – | 0.0136 | – | 0.0638 | – | – | – | – | – | 0.0571 | 0.0541 | –
11 | F187I | 0.0723 | 0.0616 | 0.0629 | 0.0609 | 0.063 | 0.105 | 0.0664 | 0.0507 | 0.11 | 0.0938 | – | 0.071 | 0.071 | – | 0.0876 | – | – | 0.101 | –
12 | F187E | 0.0865 | 0.0665 | – | – | 0.0428 | 0.0539 | 0.0438 | – | 0.0673 | 0.0681 | 0.0514 | 0.0544 | – | 0.0568 | 0.0511 | 0.0438 | 0.0229 | 0.0491 | 0.0416
13 | N186M | – | 0.0451 | – | 0.0828 | – | 0.101 | 0.0716 | 0.0652 | 0.098 | – | 0.0628 | – | – | – | – | 0.0798 | 0.0572 | 0.0763 | –
14 | N175C | 0.0781 | – | 0.046 | – | 0.0592 | 0.0924 | – | 0.0562 | 0.111 | 0.086 | 0.0618 | 0.0667 | 0.06 | – | – | 0.0646 | 0.0632 | 0.0727 | 0.0684
15 | K221Q | – | 0.0582 | 0.066 | 0.0784 | – | 0.0988 | 0.0751 | – | 0.118 | 0.0699 | 0.0674 | 0.0507 | – | 0.0824 | – | 0.0564 | – | 0.0578 | –
16 | F163V | – | – | – | 0.0802 | 0.0795 | 0.102 | 0.0686 | 0.0612 | – | – | 0.0684 | – | – | – | – | – | – | 0.0788 | –
17 | F173D | 0.048 | 0.0606 | 0.0566 | 0.0673 | 0.0613 | 0.0794 | 0.0649 | 0.0691 | 0.0744 | – | 0.0687 | 0.0672 | 0.0594 | 0.0744 | 0.0574 | 0.0513 | 0.0624 | 0.0683 | –
18 | F180V | 0.052 | 0.0807 | 0.0533 | 0.0554 | 0.0338 | 0.0585 | 0.055 | – | 0.0514 | – | 0.0286 | – | – | 0.0639 | 0.0425 | – | 0.0512 | 0.0702 | –
19 | F180C | – | 0.0643 | 0.0516 | – | 0.0567 | 0.0778 | 0.0589 | – | 0.0862 | – | – | – | – | – | 0.0562 | – | 0.0717 | – | –
